Measured values reported in the supplement of paper PMC3334620.
Over roughly 33,000 sequences, “E-score (-0.5 to 0.5)” has its median near -0.041; the highest 2% begin near 0.37. The list shows a part of the results.

target: T1, Ecm22 (UniProt Q05958); test: PBM E-score (8-mer binding enrichment) (E-score (-0.5 to 0.5)); higher = stronger / more preferred TF binding; most listed sequences are background and not binding sites; settings: protein concentration: 200 nM; construct: GST-full length
T1 sequence: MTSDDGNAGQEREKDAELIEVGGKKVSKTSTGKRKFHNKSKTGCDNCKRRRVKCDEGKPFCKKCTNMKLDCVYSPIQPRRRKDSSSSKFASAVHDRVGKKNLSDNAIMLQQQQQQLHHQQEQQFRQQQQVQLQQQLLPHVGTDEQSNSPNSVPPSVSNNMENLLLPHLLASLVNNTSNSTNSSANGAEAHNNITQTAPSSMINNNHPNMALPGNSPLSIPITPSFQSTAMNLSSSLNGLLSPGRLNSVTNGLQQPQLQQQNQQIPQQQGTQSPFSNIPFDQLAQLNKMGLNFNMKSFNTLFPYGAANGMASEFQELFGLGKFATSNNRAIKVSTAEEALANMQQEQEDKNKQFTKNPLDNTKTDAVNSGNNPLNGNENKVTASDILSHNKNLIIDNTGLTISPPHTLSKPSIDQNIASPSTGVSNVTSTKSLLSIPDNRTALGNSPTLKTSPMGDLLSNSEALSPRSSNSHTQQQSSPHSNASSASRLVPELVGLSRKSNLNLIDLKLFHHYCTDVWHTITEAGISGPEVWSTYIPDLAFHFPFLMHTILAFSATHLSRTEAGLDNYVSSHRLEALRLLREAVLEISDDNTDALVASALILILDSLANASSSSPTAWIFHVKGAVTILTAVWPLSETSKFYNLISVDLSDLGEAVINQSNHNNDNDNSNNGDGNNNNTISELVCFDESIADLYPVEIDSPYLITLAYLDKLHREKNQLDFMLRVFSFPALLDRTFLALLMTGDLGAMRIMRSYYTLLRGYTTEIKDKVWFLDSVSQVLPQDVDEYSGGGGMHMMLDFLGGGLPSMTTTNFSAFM
Method in brief: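 Detection of bound protein used fluorescent anti-GST, with scans normalised by masliner. The proteins were GST-tagged yeast transcription factors applied at about 100-200 nM to universal all-10-mer Agilent arrays made double-stranded by primer extension. Each ungapped eight-base word, pooled with its reverse complement, was scored with an E-score from the Universal PBM Analysis Suite.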

Sequence | PBM E-score
AAACTCGG | 0.161
TACCTTCA | 0.0669
GCGATCCA | 0.226
AGACGCCA | -0.132
CCAGCCAG | -0.247
AGATATTA | 0.204
AGGCTATA | -0.169
GGACTGGA | -0.323
TAAGAGTA | 0.0107
CTGCATTA | -0.0864
CCAGAGGC | -0.124
CATGATCA | -0.0879
CGACGCCC | 0.164
CCGCTTAA | 0.291
ACCTGGGG | -0.237
AGTGCATA | 0.148
ATCTCCCC | -0.143
ACAAATTA | 0.0865
ATGGGTCA | -0.171
CCATCCCA | -0.287
AATGTGTC | -0.0434
TGACACAA | -0.188

Sequence | PBM E-score
CGTTCTCA | 0.254
CCCTTAGA | -0.23
CAACCATC | -0.0236
GGTTCGAC | 0.0422
AACGGGCC | 0.101
CAGAGAGC | -0.179
ACTACGCA | -0.15
AGAATTAC | 0.209
GCTAGAAA | -0.138
CCAGACCA | -0.173
CTCACACA | -0.12
GAATGTCA | -0.221
AAGAATTG | 0.077
GATGCGCC | -0.163
CAACTGGA | -0.256
CTATGCAC | -0.164
GACACACC | -0.0167
TGAGCCAA | -0.169
ATGGGAGC | 0.0541
TAGCCATA | 0.0728
ACGCTAGC | -0.199
ATTTTTGC | 0.131

Sequence | PBM E-score
GCGTGAGA | -0.0852
ATTGTCGG | 0.181
AACCTTTC | -0.0282
CGGAAAAG | 0.169
CCACAACC | 0.0425
CTAGAGCC | -0.308
AACCAGCA | -0.296
AAGAGAGT | -0.162
ACTGGTGA | -0.326
CCCCCCCA | -0.413
GATGCATA | 0.0515
CCTTAATA | -0.122
CACTCTCC | -0.264
CAAGATAG | -0.0323
GGTACAGA | -0.0866
GCGATTAC | 0.144
CATCCTGC | -0.161
CCACTCAC | -0.0565
GACCGCGA | 0.156
GTATGAGA | 0.0501
ATAGCAAA | -0.0689
CATGCGGC | -0.224

Sequence | PBM E-score
GCAAGCCC | -0.12
AAGCGCGG | -0.113
ATGAGGAA | -0.0353
CCAAGCGA | 0.219
CCCGACAC | -0.135
CAAGTTGG | -0.226
ATCCCATA | -0.119
ATACTGCG | 0.136
AGTCACAA | -0.0742
CATGGTCC | -0.197
CAGGTACC | -0.126
AGTCTGCG | -0.106
CCTCCTCG | 0.144
GAACGGGC | 0.338
GAAGCGTC | 0.00657
AGACCGAT | -0.0254
AGCATCCC | -0.268
CACATGGG | -0.238
GTTGGGGA | -0.177
AGTGGGTA | -0.00122
